# Measurements published in PubChem BioAssay AID686978 (National Center for Advancing Translational Sciences (NCATS), 2013).
# Where “and” joins values, the source holds several entries; their conditions need not be identical. Identical values can stand only once. In all, about 420,000 compounds went through this assay and about 64,000 (15%) were called active. This list was built around the results that the source calls inconclusive (neither active nor inactive); the mix of calls is not that of the screen. Calls follow the shape of the dose curve; as a rule, active = well fitted inhibition curve with a large enough effect; inconclusive = small, poorly fitted or top-dose-only effect; inactive = flat fitted curve, though single readings scatter. A potency beside an inconclusive call is a rough fit, not a confirmed value.
# Test: qHTS for Inhibitors of human tyrosyl-DNA phosphodiesterase 1 (TDP1): qHTS in cells in absence of CPT; also: nearly all actives have a fitted effect of over 55% in size
# Details: DT40 Tdp1-/- hTDP1 cells, no CPT, ATP luminescence, 48 h; activity change, negative = growth inhibition: at 46.2 µM (top of the series) unless noted
# Method in brief: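 Cells were dispensed at 400 per well, compounds added by pin tool, plates incubated ≥48 hr at 37 °C, then CellTiter-Glo added for 30 min at room temperature before luminescence reading. Line: DT40 Tdp1-/- complemented with hTDP1; camptothecin omitted.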
# % is scaled to controls: 0 for no effect and ±100 for the full control effect; potency is read from the fitted curve at half-maximal effect; tags tell the direction and shape of the fitted curve.
SMILES,"activity change, negative = growth inhibition",Potency
C=CCn1c(O)c(C(CC)=Nc2cccc(C(=O)O)c2)c(=O)[nH]c1=O,inactive: -9.32%,
COC(=O)C1=C(c2cccc(OCc3ccccc3)c2)C[C@@H]2CC[C@H]1N2C(=O)NCc1ccc(Cl)cc1,,"inconclusive: 29.1 µM [inhibitor, single point]"
C=CCn1c(O)c(/C(CC)=N/NC(=S)Nc2ccccc2)c(=O)[nH]c1=O,inactive: -1.31%,
CC(=O)N1CCN(c2ccc(OC[C@@H]3CO[C@@](Cn4ccnc4)(c4ccc(Cl)cc4Cl)O3)cc2)CC1,,active: 7.08 µM and active: 15.8 µM
COc1ccc(Cn2c(O)c(/C=C3/C=CC=N3)c(=O)[nH]c2=O)cc1,,active: 16.4 µM
Cc1cc(-n2c(/C=C/c3ccc(Br)s3)nc3ccccc3c2=O)ccc1Br,,"inconclusive: 20.6 µM [inhibitor, single point]"
COC(=O)C1=C(c2ccc(S(C)(=O)=O)cc2)C[C@@H]2CC[C@H]1N2C(=O)N1CCOCC1,inactive: 6.72%,
CCOC(=O)CC(NC(=O)C(Cc1ccc(N(CCCl)CCCl)cc1)NC(C)=O)C(=O)OCC (stereo not given),,active: 0.517 µM
CCOc1cc2c(cc1OCC)-n1cccc1C(c1ccccc1OC)NC2 (stereo not given),,active: 25.9 µM
CCOC(=O)c1c(C)n(CCOC)c2ccc(O)cc12,,"inconclusive: 14.1 µM [inhibitor, single point]"
CCOc1ccc(-n2c(-c3cccs3)nc3ccccc3c2=O)cc1,,"inconclusive: 8.2 µM [inhibitor, single point]"
C=C(CO)CC1CC(O)[C@]2(C)OC3CC4OC5C[C@]6(C)O[C@]7(C)CCC8OC9C[C@]%10(C)OC%11C(C)=CC(=O)OC%11CC%10OC9C[C@@H](C)C8OC7CC6O[C@]5(C)C/C=C\C4OC3CC2O1 (stereo not given in full),,active: 16.4 µM
COC12C(COC(N)=O)C3=C(C(=O)C(C)=C(N)C3=O)N1CC1C2N1C (stereo not given),,active: 0.0651 µM
COC(=O)C1=C(c2ccc(OC)c(OC)c2)C[C@@H]2CC[C@H]1N2C(=O)N1CCc2cc(OC)c(OC)cc2C1,,"inconclusive: 29.1 µM [inhibitor, single point]"
COC(=O)C1=C(c2cc3ccccc3s2)C[C@@H]2CC[C@H]1N2C(=O)NCC1CC1,,active: 16.4 µM
N/C(=N\[N+](=O)[O-])N1CCN(C(=O)Oc2ccccc2)CC1,inactive: 2.8%,
C[C@]12CCC(=O)CC1CCC1C2CC[C@]2(C)C(OC(=O)CCC(=O)O)CCC12 (stereo not given in full),inactive: -29.3%,
Cc1cc(O)c2c(c1)C(=O)c1cc(O)cc(O)c1C2=O,,active: 21.1 µM

SMILES,"activity change, negative = growth inhibition",Potency
COc1ccc(NC(=O)CSc2nc(-c3ccco3)cc(C(F)(F)F)n2)cc1OC,,active: 0.92 µM
COCc1cc(OC(=O)N(C)C)nc(-c2ccc(C)c(Cl)c2)n1,,"inconclusive: 13 µM [inhibitor, partial curve]"
O=C(Oc1c(Br)cc(Br)c2cccnc12)N1CCCCC1,,"inconclusive: 16.4 µM [inhibitor, single point]"
C/C(O)=C1\C(=O)[C@@H]2[C@H]3c4c[nH]c5cccc(c45)C[C@H]3C(C)(C)N2C1=O,,active: 5.8 µM and active: 8.31 µM
O=C(/C=C/c1cccc(F)c1)Nc1ccc(S(=O)(=O)Nc2ncccn2)cc1,,"inconclusive: 16.4 µM [inhibitor, single point]"
CC(C)(C)OC(=O)c1ncn2c1[C@@H]1CCCN1C(=O)c1c(Br)cccc1-2,,"inconclusive: 33.5 µM [inhibitor, single point]"
CCOC(=O)[C@H](CCc1ccccc1)N[C@@H](C)C(=O)N1Cc2cc(OC)c(OC)cc2C[C@H]1C(=O)O,,"inconclusive: 33.5 µM [inhibitor, single point]"
CN1C(=O)C(=Cc2ccc(SC3CCCCC3)o2)C(=O)N(C)C1=O,inactive: -0.875%,
CC(C(=O)Nc1ccc(Cl)cc1Cl)N1CC=C(c2ccccc2)CC1 (stereo not given),,"inconclusive: 18.4 µM [inhibitor, single point]"
Cc1ccc(Cn2cc(C=O)c(-c3ccc(C)cc3)n2)cc1,,"inconclusive: 20.6 µM [inhibitor, single point]"
COc1cc(CNCCc2c[nH]c3ccccc23)cc(OC)c1,,active: 23.1 µM
CC12CCC3C(=CCc4cc(O)ccc43)C1CCC2=O (stereo not given),inactive: -33.5%,
CN(C)C(=O)Oc1ccc(OCc2cccc[n+]2C)cc1,inactive: -16.6%,
CC1CCC(NCCc2ccc3c(c2)OCO3)CC1 (stereo not given),,"inconclusive: 29.1 µM [inhibitor, single point]"
O=C1NC(=O)C(=Cc2ccc(-c3ccc(F)cc3O)o2)C(=O)N1,,"inconclusive: 20.6 µM [inhibitor, single point]"
S=C1NC2(CCCCC2)NC12CCCCC2,inactive: -10.4%,
OC(c1ccccc1)(c1ccccc1)C1CN2CCC1CC2 (stereo not given),,"inconclusive: 29.9 µM [inhibitor, single point] and inconclusive: 11.6 µM [inhibitor, partial curve, poor fit]"
